From the antibiotic and cytotoxicity screens of Wong et al. (2023) come the findings set out here.

One experiment relates to HSkMC. Description: cytotoxicity call (relative viability < 0.9). The following applies: 10 µM.
The subject of a further experiment is HepG2. The experiment in a line: cytotoxicity call (relative viability < 0.9). To be noted: 10 µM.
The next experiment relates to S. aureus RN4220. The experiment in a line: growth inhibition call (relative growth <= 0.2). To be noted: 50 µM.

SMILES strings stand for the structures. This is one part of the list.

`Cc1cc(C(=O)O)c(C#N)c(N)n1`: the cytotoxicity call with HSkMC and in the experiment on HepG2 was “inactive” in each case. Also, the growth inhibition call in the experiment with S. aureus RN4220 is “inactive”.

On to `CC(=O)On1cc(F)c(=O)[nH]c1=O`, for which, in the experiment on HSkMC, the cytotoxicity call was “inactive”. Besides, the cytotoxicity call with HepG2 was “active”. Moreover, the growth inhibition call in the experiment on S. aureus RN4220 is “inactive”.

As to `C[C@@H]1CN([C@H](C)CO)C(=O)c2cc(NC(=O)Nc3cccc4ccccc34)ccc2O[C@H]1CN(C)Cc1ccccc1`, the cytotoxicity call with HSkMC and in the experiment with HepG2 was “inactive” in each case. For the same molecule, the growth inhibition call in the experiment with S. aureus RN4220 was “inactive”.

Turning to `N[C@@H]1CC[C@@H](CCn2cc(-c3cccc(F)c3)nn2)O[C@H]1CO`, the cytotoxicity call in the experiment with HSkMC and in the experiment on HepG2 was “inactive” in each case. Further, the growth inhibition call in the experiment on S. aureus RN4220 is “inactive”.

With `C[C@H](CO)N1C[C@H](C)[C@H](CN(C)C(=O)Nc2ccccc2)OCCCC[C@H](C)Oc2ccc(NC(=O)Nc3ccc4c(c3)OCO4)cc2C1=O`, the cytotoxicity call in the experiment with HSkMC and with HepG2 was “inactive” in each case. Moreover, the growth inhibition call in the experiment with S. aureus RN4220 was “inactive”.

Take `C[C@@H]1CCCCO[C@H](CN(C)Cc2ccccc2)[C@@H](C)CN([C@H](C)CO)C(=O)c2cc(NC(=O)Cc3ccccc3)ccc2O1`: the cytotoxicity call in the experiment with HSkMC and with HepG2 was “inactive” throughout. Also, in the experiment with S. aureus RN4220, the growth inhibition call was “inactive”.

As to `Cc1ccc(-c2ccc3c(c2)O[C@H](CN(C)C(=O)NC(C)C)[C@@H](C)CN([C@@H](C)CO)S3(=O)=O)cc1`, the cytotoxicity call with HSkMC and in the experiment with HepG2 was “inactive” each time. Further, the growth inhibition call with S. aureus RN4220 is “inactive”.

Consider `C[C@@H]1CCCCO[C@H](CN(C)C(=O)CCCN(C)C)[C@H](C)CN([C@H](C)CO)C(=O)c2cc(NS(C)(=O)=O)ccc2O1`, for which the cytotoxicity call in the experiment with HSkMC and in the experiment with HepG2 was “inactive” each time. Also, the growth inhibition call with S. aureus RN4220 is “inactive”.

`C[C@@H]1CN([C@@H](C)CO)C(=O)c2c(c3ccccc3n2C)-c2ccccc2CO[C@H]1CN(C)Cc1ccc2c(c1)OCCN2C`: in the experiment with HSkMC, the cytotoxicity call was “inactive”. Besides, the cytotoxicity call in the experiment on HepG2 was “active”. Also, the growth inhibition call with S. aureus RN4220 was “inactive”.

Take `COc1ccc(NC(=O)Nc2ccc3c(c2)C(=O)N([C@H](C)CO)C[C@H](C)[C@@H](CN(C)C(=O)NC(C)C)OCCCC[C@@H](C)O3)cc1`: the cytotoxicity call in the experiment on HSkMC (human skeletal muscle cells) and in the experiment on HepG2 was “inactive” throughout. The growth inhibition call in the experiment on S. aureus RN4220 is “inactive”.
